Test results published in paper PMC4336329 (PLoS ONE, 2015).
The campaign covered roughly 310,000 compounds. About 14,000 (4.5%) showed an effect of 50% or more. The effect is printed as a negative number. This is one part of the list.

These molecules were tested against human ether-à-go-go-related gene (hERG) potassium channel (human, UniProt Q12809) (assay: primary screen, population patch clamp on CHO cells stably expressing hERG).
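Note: peak tail current of the secondary pulse compared with the same well before compound.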

human ether-à-go-go-related gene (hERG) potassium channel, sequence (Q12809 whole entry, looked up): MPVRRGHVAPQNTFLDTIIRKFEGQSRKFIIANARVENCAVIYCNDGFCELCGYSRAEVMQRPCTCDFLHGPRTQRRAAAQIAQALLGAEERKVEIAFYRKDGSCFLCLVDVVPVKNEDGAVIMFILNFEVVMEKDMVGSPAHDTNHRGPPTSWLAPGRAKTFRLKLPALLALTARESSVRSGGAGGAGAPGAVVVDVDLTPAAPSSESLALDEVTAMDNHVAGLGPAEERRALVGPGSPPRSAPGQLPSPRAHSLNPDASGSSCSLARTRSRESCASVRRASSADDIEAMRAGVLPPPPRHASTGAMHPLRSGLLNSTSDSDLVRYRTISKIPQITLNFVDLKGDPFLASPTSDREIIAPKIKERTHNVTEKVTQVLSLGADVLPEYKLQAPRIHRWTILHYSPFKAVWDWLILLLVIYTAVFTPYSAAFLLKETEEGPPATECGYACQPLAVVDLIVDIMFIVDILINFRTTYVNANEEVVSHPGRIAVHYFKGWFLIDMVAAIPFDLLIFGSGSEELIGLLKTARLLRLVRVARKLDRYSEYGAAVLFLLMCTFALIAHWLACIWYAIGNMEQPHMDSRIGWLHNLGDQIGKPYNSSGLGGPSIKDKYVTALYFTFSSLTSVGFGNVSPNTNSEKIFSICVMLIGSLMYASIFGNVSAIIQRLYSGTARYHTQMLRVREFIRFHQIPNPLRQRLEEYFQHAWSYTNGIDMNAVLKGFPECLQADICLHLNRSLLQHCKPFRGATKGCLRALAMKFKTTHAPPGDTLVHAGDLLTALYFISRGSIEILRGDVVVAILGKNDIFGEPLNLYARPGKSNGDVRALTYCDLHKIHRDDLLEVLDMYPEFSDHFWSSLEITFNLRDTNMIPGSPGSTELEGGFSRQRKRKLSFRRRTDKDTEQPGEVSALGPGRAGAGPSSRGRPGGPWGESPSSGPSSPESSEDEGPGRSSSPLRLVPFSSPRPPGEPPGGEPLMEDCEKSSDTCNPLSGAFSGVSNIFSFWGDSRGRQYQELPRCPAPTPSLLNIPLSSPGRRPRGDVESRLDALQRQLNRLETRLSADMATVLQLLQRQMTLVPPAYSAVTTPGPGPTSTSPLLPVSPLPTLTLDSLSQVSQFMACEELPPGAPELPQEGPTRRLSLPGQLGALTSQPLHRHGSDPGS

| SMILES | hERG current change (%, negative = inhibition) at 10uM |
| --- | --- |
| O=C(NCc1ccccc1)c1cc(-c2cccc(O)c2)on1 | 1.09% |
| O=C1Nc2ccccc2C1(O)Cc1ccncc1 (centres unmarked) | 2.55% |
| Cc1cccc(NCCC(=O)c2ccc(Br)cc2)c1 | 2.95% |
| CC(C)Cn1nc(NC(=O)C2CCCO2)c2cc3ccccc3nc21 (centres unmarked) | -14% |
| CN(c1ccccc1)S(=O)(=O)c1ccc(Cl)c(C(=O)NCc2ccccc2CN2CCCC2)c1 | -65.9% |
| COc1ccc(-c2cc(C(=O)N3CCN(c4ccccc4O)CC3)c3ccccc3n2)cc1OC | -40.7% |
| Cc1cccc(-n2cnc(C(=O)N3CCN(C)CC3)c2)n1 | 24.1% |
| CCCOc1ccc(C2c3c(oc4ccccc4c3=O)C(=O)N2CCCN2CCOCC2)cc1 (centres unmarked) | -6.76% |
| CCOc1ccccc1OCC(=O)OCc1csc(CC(=O)Nc2ccccc2C)n1 | -15.2% |
| COc1ccc(N2C(=O)C(CC(=O)Nc3ccc(F)cc3)N(CCc3ccc(OC)c(OC)c3)C2=O)cc1 (centres unmarked) | -32.9% |
| COc1ccc(CNC(=S)Nc2ccccc2C)cc1 | 3.03% |
| CCC(=O)Nc1cc(C)c(NC(=O)c2ccccc2OC)cn1 | 15.9% |
| CCOC(=O)Cn1c(=O)oc2cc(S(=O)(=O)Nc3c(C)cc(C)cc3C)ccc21 | -4.78% |
| CC1(C)C[C@H](O)[C@]2(CO)CC[C@]3(C)C(=CCC4[C@@]5(C)CC[C@H](O)C(C)(C)C5CC[C@]43C)[C@@H]2C1 (some centres unmarked) | -13.9% |
| O=C(COC(=O)CC1CC2CCC1C2)Nc1ccc(F)cc1 (centres unmarked) | -22.4% |
| CCOC(=O)C(C)Sc1nnc(Cc2cc(=O)[nH]c(=O)[nH]2)n1-c1cccc(OC)c1 (centres unmarked) | 0.328% |
| CCOC(=O)c1cccc(NC(=O)c2cc(C)nn2-c2ccccc2)c1 | -50.5% |
| O=C(Nc1cccc([N+](=O)[O-])c1)C1CC(=O)N(C2CCCCC2)C1 (centres unmarked) | -45.4% |
| CCCn1c(C(O)c2cc(OC)c(OC)c(OC)c2)nc2ccccc21 (centres unmarked) | 8.16% |
| CS(=O)(=O)N(CC(=O)N1CCN(Cc2ccccc2)CC1)c1ccccc1Br | 6.95% |
| Cc1ccc2c(c1)C1CN(C)CCC1N2C(=O)c1cccc(S(=O)(=O)N2CC(C)CC(C)C2)c1.Cl (centres unmarked) | -44.8% |
| CCOC(=O)c1cnc2c(cnn2C)c1NCCC(O)C(F)(F)F (centres unmarked) | 0.469% |

| SMILES | hERG current change (%, negative = inhibition) at 10uM |
| --- | --- |
| O=C(Nc1ccccc1N1CCCC1)c1ccc(N2CCCC2=O)cc1 | -22.1% |
| CC(C)c1ccc(NC(=O)c2sccc2-n2cccc2)cc1 | 7.16% |
| COc1ccc(NC(=O)c2cccs2)cc1O | -5.28% |
| COc1ccc(Cn2c(-c3ccc(C)cc3)c[n+]3ccccc23)cc1.[Br-] | -33.4% |
| COCCNC(=S)Nc1ccc2nc(N3CCN(C)CC3)cc(C)c2c1 | 8.03% |
| COc1ccccc1CN1CC(C(=O)NCc2cc(C(C)C)no2)CCC1=O (centres unmarked) | 21% |
| CCOP(=O)(CC(C(C)=O)C(O)c1ccccc1)OCC (centres unmarked) | 11.3% |
| COc1ccc(NC(=O)CSc2nccn2Cc2ccco2)cc1 | 8.27% |
| CC1(C)CC2(CCO1)OC(=O)CC2C(=O)NCc1ccccc1 (centres unmarked) | -9.54% |
| Cc1ccc(CNC(=O)COc2ccc(S(=O)(=O)N3CCOCC3)cc2)cc1 | 6.34% |
| O=C(Nc1nnc(C2=COCCO2)o1)c1cccc(Br)c1 | 13.6% |
| Nc1cc(C2CCCC2)nn1-c1ccccc1 | -0.945% |
| COc1ccccc1N=C1SCC(=O)N1Cc1ccco1 | 9.34% |
| Cc1ccc2nc(-c3ccncc3)cc(-c3ccccc3)c2c1 | -10.3% |
| CCOC(=O)C1(Cc2cccc(Cl)c2)CCCN(C2CCN(C(C)=O)CC2)C1 (centres unmarked) | 5.28% |
| Cc1cc(C)c2cc3c(N)c(C(=O)N4CCOCC4)sc3nc2c1 | 23.9% |
| Cc1ccc(C(=O)/C=C/Nc2cccc(O)c2)cc1 | -7.14% |
| COC(=O)c1ccc(CNS(=O)(=O)c2ccc3ccccc3c2)cc1 | 2.29% |
| O=S(=O)(N[C@H]1C[C@@H](NS(=O)(=O)OCC(Cl)(Cl)Cl)C2CCCCC21)OCC(Cl)(Cl)Cl (some centres unmarked) | 12.6% |
| CN(C1CCCCC1)S(=O)(=O)c1ccc(NC(=O)Cn2nc(-c3ccc(F)cc3)ccc2=O)cc1 | -9.76% |
| CCOC(=O)CSc1n[nH]c(NC(C)=O)n1 | 7.46% |
| Cc1ccc2nc(Cl)c3cc(C(=O)NCCCN4CCCC4)sc3c2c1 | -10.3% |

| SMILES | hERG current change (%, negative = inhibition) at 10uM |
| --- | --- |
| O=[N+]([O-])c1cc(-c2ccc(/C=N/c3nc4ccccn4c3-c3ccco3)o2)ccc1Cl | -22% |
| CC(=O)N(c1ccc(N(C(C)=O)S(=O)(=O)c2ccccc2)cc1)S(=O)(=O)c1ccccc1 | 4.64% |
| COc1ccc(N=Cc2c[nH][nH]c2=O)cc1 | 6.13% |
| O=C(NNC(=O)c1ccccc1OCc1ccccc1)c1ccccc1O | 15.2% |
| O=C(Oc1ccc(/C=N/NC(=O)c2ccco2)cc1)c1ccccc1 | -1.76% |
| C[C@H](NC(=O)c1nc[nH]c1C(=O)N1CCc2ccccc2C1)c1ccccc1 | 6.35% |
| Cc1ccc(N2C(=O)NC(=O)/C(=C\c3ccc(N4CCOCC4)cc3)C2=O)cc1 | 10.1% |
| O=S(=O)(NCCO)c1cccc2cccnc12 | 7.62% |
| CN(Cc1ccccc1)C(=O)CNC(=O)Cn1cnc2ccccc2c1=O | -7.88% |
| CC(C)(C)C(=O)N1CCN(c2ccc(NC(=O)c3ccco3)cc2)CC1 | 4.67% |
| CSc1nnc(C2CCN(CC(=O)Nc3ccccc3N3CCOCC3)CC2)n1C | -47.8% |
| O=[N+]([O-])c1cc(/C=N\Nc2nc(-c3ccccc3)cs2)ccc1O | 24.4% |
| CC(=O)Nc1ccc(Nc2nc(-c3sc(NC(C)=O)nc3C)cs2)cc1 | 18.6% |
| NS(=O)(=O)c1ccc(CCNC(=O)Cc2c[nH]c3ccccc23)cc1 | 9.33% |
| COc1cc(NS(=O)(=O)c2ccc(NC(=O)c3ccco3)cc2)nc(OC)n1 | 5.11% |
| O=C(OCC(=O)N1CCCc2ccccc21)c1cnc(Cl)c(Cl)c1 | -42% |
| CCOc1ccccc1NS(=O)(=O)c1c(C)noc1C | -7.77% |
| CCCCNC(=O)c1nn2c(C(F)(F)F)cc(-c3ccccc3)nc2c1Br | 16.4% |
| Cc1cccc2cc(CN(Cc3ccco3)C(c3nnnn3CCc3ccccc3)C(C)C)c(=O)[nH]c12 (centres unmarked) | 13.2% |
| Cc1cccc(NC(=S)NCCSc2ccc(Cl)cc2)c1 | 0.53% |
| CN(CCCN1CCOCC1)C(=O)c1cc(COc2cccc(C(F)(F)F)c2)on1 | -40.5% |
| Cc1ccc(-c2nc(NC(=O)CSc3nnc(C)s3)ns2)cc1 | -0.516% |

| SMILES | hERG current change (%, negative = inhibition) at 10uM |
| --- | --- |
| C[C@]12CCC3C(CC[C@H]4CC(O)CC[C@]34C)C1CC/C2=N/O (some centres unmarked) | 13.3% |
| O=C(NCc1ccccc1)c1ccc(Cl)nc1 | -22.9% |
| COc1cc(OC)c(-c2nc3cnccc3n2C)cc1OC | 6.5% |
| [O-]/C(=C(\C(=S)Nc1cccc2ccccc12)[n+]1ccccc1)c1cccs1 | 22.8% |
| COc1ccc(-n2c(Cc3cccn3C)nnc2SCC(=O)Nc2ccccc2OC)cc1 | -38.5% |
| CCOc1ccc(CNC(=O)CCCn2nc(C)c3c(C)n(-c4ccc(C)cc4)nc3c2=O)cc1 | -1.85% |
| O=C(c1ccccc1)c1cnc[nH]1 | -4.4% |
| CCCCc1ccc(N/C(N)=N/c2nc(C)cc(C)n2)cc1 | -70.1% |
| COc1ccc(NC(=O)CSc2nc3ccsc3c(=O)n2Cc2ccccn2)c(OC)c1 | -22.7% |
| Clc1ccccc1-c1ncnc2ccc(Br)cc12 | -15.7% |
| Cc1cccc(C)c1NC(=O)CCS(=O)(=O)c1cccc2nsnc12 | -4.59% |
| COc1ccc2[nH]c(C)c(CCN(Cc3cccs3)C(=S)Nc3cccc(F)c3)c2c1 | 14.2% |
| O=[N+]([O-])c1ccc(N2CCCCCC2)c2nonc12 | -10% |
| CC1CC(C)(C)NC(=S)N1CCCC(=O)NCc1ccccc1 (centres unmarked) | 15.2% |
| CCc1ccc2[nH]c(C(=O)N(C)c3ccc(F)cc3F)cc2c1 | 20.9% |
| Cc1ccccc1C(=O)N1CCN=C1SCc1ccc([N+](=O)[O-])cc1 | -63.6% |
| CN1C(=O)c2ccccc2C(C(=O)NCC2CCCO2)C1c1c[nH]c2ccccc12 (centres unmarked) | 5.25% |
| O=C(Nc1ccc2nc3n(c(=O)c2c1)CCCC3)c1cc([N+](=O)[O-])ccc1F | -44.8% |
| COc1ccc(-n2nnnc2/C(=C/N(C)C)C(=O)c2ccccc2)cc1 | -4.92% |
| COc1ccc(OC)c(S(=O)(=O)NCC(c2ccc(F)cc2)N2CCN(C)CC2)c1 (centres unmarked) | -33.8% |
